Reference: PubChem BioAssay AID485364 (National Center for Advancing Translational Sciences (NCATS), 2010)
In all, about 360,000 compounds went through this assay and about 11,000 (3.1%) were called active. Inconclusive results, whose numbers are uncertain, are shown with a selection of clear calls. Calls follow the shape of the dose curve; as a rule, active = well fitted inhibition curve with a large enough effect; inconclusive = small, poorly fitted or top-dose-only effect; inactive = no such curve, though single readings can be large or run the other way. No potency is given beside an inconclusive call; the fits are too rough.

target: Schistosoma mansoni thioredoxin glutathione reductase (TGR) (UniProt Q962Y6); test: qHTS Assay for the Inhibitors of Schistosoma Mansoni Peroxiredoxins; settings: purified TGR, DTNB reduction, TNB absorbance 405 nm; activity change, negative = inhibition: at 114 µM (top of the series) unless noted; also: nearly all actives have a fitted effect of over 60% in size
How it was run: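 First, TGR (20 nM dispensed) and NADPH were mixed with compound. Second, a 15 min room-temperature incubation followed. Third, further NADPH and then DTNB were added to start the reaction. Finally, TNB absorbance was monitored kinetically.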
% is scaled to controls: 0 for no effect and ±100 for the full control effect; potency is read from the fitted curve at half-maximal effect; tags tell the direction and shape of the fitted curve.

| SMILES | Potency | activity change, negative = inhibition |
| --- | --- | --- |
| O=C1C2C3C=CC(CO)(O3)C2C(=O)N1c1ccccc1-c1ccccc1 (stereo not drawn) | active: 0.316 µM |  |
| Cc1[nH]c2ccccc2c1C(=O)C(C)OC(=O)c1ccc([N+](=O)[O-])o1 (stereo not drawn) | inconclusive [inhibitor, partial curve, poor fit] |  |
| CCOC(=O)c1nc(NNC(=O)c2ccc([N+](=O)[O-])cc2)sc1C | inconclusive [inhibitor, partial curve, poor fit] |  |
| CC1(C)CNc2cc(N)ccc2S1 | inconclusive [inhibitor, partial curve] |  |
| Cc1cccc(C)c1NC(=S)NCCc1ccc(O)c(O)c1 | active: 7.94 µM |  |
| COc1ccc(C2c3cc(OC)c(OC)cc3CCN2S(C)(=O)=O)cc1OC (stereo not drawn) | inconclusive [inhibitor, single point] |  |
| COc1ccc(CC(=O)NC(C)c2nnc(SCC(=O)Nc3nc(C)cs3)n2C)cc1 (stereo not drawn) |  | inactive: -1.62% |
| Clc1ccccc1Cc1noc(CN2CCN(Cc3ccccn3)CC2)n1 | active: 17.8 µM |  |
| Cc1ccc(CN2CCN(C/C=C/c3ccc(F)cc3)CC2CCO)o1 (stereo not drawn) | inconclusive [inhibitor, partial curve] |  |
| O=C(N/N=C/C(Br)=C\c1ccccc1)c1ccco1 | inconclusive [inhibitor, partial curve] |  |
| O=C(CNc1ccc2c(c1)OCO2)N/N=C\c1cn(Cc2ccccc2)c2ccccc12 | inconclusive [inhibitor, partial curve] |  |
| Cc1ccc2c(c1)C(=O)C(=O)N2CCCOc1ccccc1C | inconclusive [inhibitor, partial curve] |  |
| CCC(NC(=S)NCc1ccc(F)cc1)c1ccc(C(C)C)cc1 (stereo not drawn) |  | inactive: 12.2% |
| Cc1ccc(C(=O)N2CCN(C(=O)CN3CCOCC3)C2)cc1 | inconclusive [inhibitor, partial curve] |  |
| O=C1NCCN(Cc2ccc(Cl)c(F)c2)C1CC(=O)N1CCCO1 (stereo not drawn) | inconclusive [inhibitor, partial curve] |  |
| O=C(/C=C/c1ccco1)NC1CCCC1 | active: 4.47 µM |  |
| c1cc2c3c(cccc3c1)NC1(CCCCCC1)N2 | inconclusive [inhibitor, partial curve] |  |
| O=c1[nH]c(CCl)nc2cc(-c3ccc(F)cc3)sc12 | active: 11.2 µM |  |
| Cc1n[nH]c(=O)nc1N/N=C/c1ccco1 |  | inactive: -32.2% |
| Cc1oc(-c2cccs2)nc1CS(=O)CC(=O)NCc1ccc2c(c1)OCO2 (stereo not drawn) | active: 39.8 µM |  |
| Cc1ccc(C)n1-c1ccc(-n2cnnn2)cc1 | inconclusive [inhibitor, full curve] |  |
| CCC(=O)Nc1ccc(C(=O)COC(=O)CCN2C(=O)C3CC=CCC3C2=O)cc1 (stereo not drawn) | inconclusive [inhibitor, partial curve] |  |
| O=C(NCc1ccco1)c1cc(-c2cccnc2)nc2ccc(Cl)cc12 | inconclusive [inhibitor, partial curve] |  |
| COC(=O)c1ccc(/C=C/C(=O)c2ccc(OC)cc2)cc1 |  | inactive: 4.12% |
| O=C(COC(=O)c1ccc([N+](=O)[O-])o1)NC1CCS(=O)(=O)C1 (stereo not drawn) | inconclusive [inhibitor, partial curve] |  |

| SMILES | Potency | activity change, negative = inhibition |
| --- | --- | --- |
| Cc1ccc(/C=C/C(=O)O)cc1S(=O)(=O)N1CCC(Cc2ccccc2)CC1 | active: 25.1 µM |  |
| COc1ccc(N2CCN(C(CNC(=O)c3ccc4c(c3)OCO4)c3cccnc3)CC2)cc1 (stereo not drawn) |  | inactive: -4.76% |
| O=C(NC1CCCC1)c1ccc(CS(=O)Cc2ccc(Cl)cc2)o1 (stereo not drawn) | inconclusive [inhibitor, partial curve] |  |
| C=CCOc1cccc(C2C(C(=O)c3ccc(C)o3)=C(O)C(=O)N2c2nnc(C)s2)c1 (stereo not drawn) | active: 28.2 µM |  |
| CCOC(=O)Cc1csc(NC(=S)NC(=O)c2ccc(F)cc2)n1 | inconclusive [inhibitor, single point] |  |
| S=C1NC2=C(CCC/C2=C\c2ccc(Cl)cc2)C(c2ccc(Cl)cc2)N1 (stereo not drawn) | inconclusive [inhibitor, partial curve] |  |
| COc1cc(/C=C2\N=C(C)OC2=O)cc(OC)c1OC | active: 17.8 µM |  |
| COc1ccc(S(=O)(=O)CCC(=O)N2CCN(c3ccccc3F)CC2)cc1 | inconclusive [inhibitor, partial curve] |  |
| Cc1ccc2c(C(=O)CCl)c(C)[nH]c2c1 | active: 1.41 µM |  |
| CC(=O)O[C@H]1C[C@@]2(C)[C@@H](C[C@@H](O)[C@H]3[C@@]4(C)CC[C@@H](O)[C@@H](C)[C@@H]4CC[C@@]32C)/C1=C(\CCC=C(C)C)C(=O)O | inconclusive [inhibitor, partial curve] |  |
| COc1ccc(C(=O)Nc2ncc3c(n2)CC(c2ccco2)CC3=O)cc1 (stereo not drawn) | inconclusive [inhibitor, partial curve] |  |
| COC(=O)CSc1[nH]c2ccc(F)cc2c1[N+](=O)[O-] | inconclusive [inhibitor, full curve, poor fit] |  |
| CCc1ccccc1NC(=O)c1noc(C(C)C)c1[N+](=O)[O-] | inconclusive [inhibitor, partial curve, poor fit] |  |
| Cc1cc(C)cc(NC(=S)Nc2ccccn2)c1 | inconclusive [inhibitor, full curve] |  |
| Cc1cc(C)c(NC(=O)c2cc(S(=O)(=O)N3CCOCC3)ccc2F)c(C)c1 |  | inactive: 1.75% |
| COCCn1nnnc1CN1C2CCCC1CC(NC(C)=O)C2 (stereo not drawn) | inconclusive [inhibitor, single point] |  |
| CCOc1ccc(C(=O)Cn2cnnc2C#N)cc1 | inconclusive [inhibitor, full curve] |  |
| COC(=O)[C@@]12CCCN1[C@H](c1ccc(-c3ccc(OC)cc3)c(OC)c1)[C@H]1C(=O)N(C)C(=O)[C@H]12 | inconclusive [inhibitor, partial curve] |  |
| C=C1c2cc(C)c(C)cc2NC(=O)N1c1ccccc1 | inconclusive [inhibitor, partial curve] |  |
| CCOC(=O)c1cc(C)n(CCCN2CCOCC2)c1C |  | inactive: 2.35% |
| Fc1ccc(CNc2ccc(N3CCN(Cc4ccccc4)CC3)cc2)cc1 | inconclusive [inhibitor, single point] |  |
| O=C(CSc1nnc(SCc2ccccc2)s1)N/N=C/C=C\c1ccco1 | active: 31.6 µM |  |
| COc1ccc(C(=O)N2CCN(Cc3cc(OC)c(O)c(OC)c3)CC2)cc1OC | active: 8.91 µM |  |
| Cc1ccc(CNC(=O)CCCOc2cc(=O)n(C)c3ccccc23)o1 | active: 12.6 µM |  |
| CCOC(=O)c1ccc(NC(=S)Nc2ccccc2)cc1 | inconclusive [inhibitor, partial curve] |  |

| SMILES | Potency | activity change, negative = inhibition |
| --- | --- | --- |
| CC(C)(C)NC(=O)C(c1ccncc1)N(C(=O)c1csnn1)C1CC1 (stereo not drawn) | inconclusive [inhibitor, partial curve] |  |
| COc1ccccc1N1C(=O)C2C(C(=O)c3ccccc3)=NN(c3ccc(Br)cc3)C2C1=O (stereo not drawn) | inconclusive [inhibitor, single point] |  |
| O=C(N/N=C\c1cccnc1)c1ccccc1O |  | inactive: -24% |
| COc1ccc(C(=O)N=C2SC3CS(=O)(=O)CC3N2c2ccccc2)cc1OC (stereo not drawn) |  | inactive: -1.76% |
| COc1ccc2c(c1)CC1(CN2C)C(=O)NC(=O)N(CCc2ccccc2)C1=O (stereo not drawn) | active: 39.8 µM |  |
| O=[N+]([O-])c1ccc(S(=O)(=O)c2ccccc2)nc1 | active: 0.316 µM |  |
| CC(=O)c1c(C)c(C)c2n1CCn1c(C)ccc1-2 | active: 12.6 µM |  |
| CCc1nc2ccc(C(=O)NCc3ccc(C)o3)cc2nc1CC | inconclusive [inhibitor, partial curve] |  |
| Cc1cc(C)c2cc(CN(CCO)Cc3nnnn3Cc3ccccc3)c(=O)[nH]c2c1 | inconclusive [inhibitor, partial curve] |  |
| COc1ccc(N(C(=O)c2ccccc2C)S(=O)(=O)c2ccc3c(c2)n(C)c(=O)n3C)cc1 |  | inactive: 2.89% |
| Cc1ccc(S(=O)(=O)NC(CC(=O)O)c2ccco2)cc1 (stereo not drawn) | inconclusive [inhibitor, partial curve] |  |
| O=C(/C=C/c1ccco1)N(Cc1cccc(Cl)c1)C1CCS(=O)(=O)C1 (stereo not drawn) | active: 2.82 µM |  |
| CCn1cc(S(=O)(=O)Nc2ccc(Cl)cc2F)cn1 | inconclusive [inhibitor, full curve, poor fit] |  |
| Cc1cccc(C)c1N/C=C/c1onc(C)c1[N+](=O)[O-] | active: 89.1 µM |  |
| Cc1cc(CN2CCC(n3nccc3NC(=O)c3ccccc3Cl)CC2)cc(C)c1O | active: 44.7 µM |  |
| CCOc1ccc(C(=O)C(CCC(CN(C)C)C(=O)c2ccc(OCC)cc2)CN(C)C)cc1 (stereo not drawn) | active: 15.8 µM |  |
| Cc1cc(C)nc(CCNC(=O)CC2C(=O)NCCN2Cc2ccccc2)n1 (stereo not drawn) | inconclusive [inhibitor, partial curve, poor fit] |  |
| CSc1ccccc1NC(=O)COc1ccc(Cl)cc1Cl |  | inactive: 4.54% |
| COc1ccc(-c2nc(CSc3nc4ncccc4[nH]3)c(C)o2)cc1OC |  | inactive: -13.6% |
| Brc1ccc(-c2csc(N3CCCCCC3)n2)cc1 |  | inactive: 51.5% |
| O=[N+]([O-])c1nn(-c2ccc3c(c2)OCCO3)n(O)c1=NC1CCCCCC1 | active: 35.5 µM |  |
| COc1ccc(-c2[nH]c(-c3ccccc3)nc2SCC(=O)Nc2ccc3c(c2)OCO3)cc1 | inconclusive [inhibitor, single point] |  |
| Cc1ccc(/C=C/C(=O)c2ccc([N+](=O)[O-])o2)cc1 | active: 14.1 µM |  |
